# Data from USRE49495E1, “Binding polypeptides having a mutated scaffold” (Affibody AB, priority 2013, dated 2023).
# What was measured:
# [1] = Circular dichroism, variable temperature measurement (Tm) and spectra before and after heating; assay type: physicochemical; conditions: His6-tagged, 0.5 mg/ml in PBS, CD at 221 nm, 20 to 90° C.
# Method: Circular dichroism (CD) analysis was carried out to determine the melting temperatures (Tm) and assess potential changes in the secondary structure of the inventive polypeptides as a result of the amino acid substitutions.
# Purified His6-tagged Z variants were diluted to 0.5 mg/ml in PBS. For each diluted Z variant, a CD spectrum at 250-195 nm was recorded at 20° C. A variable temperature measurement (VTM) was performed to determine the Tm. In the VTM, the absorbance was measured at 221 nm while the temperature was raised from 20 to 90° C., with a temperature slope of 5° C./min. After the VTM, a second CD spectrum at 250-195 nm was recorded at 20° C. The CD measurements were performed on a Jasco J-810 spectropolarimeter (Jasco Scandinavia AB) using a cell with an optical path-length of 1 mm.
# [2] = molecular target: T1, human CAIX (Homo sapiens, UniProt Q16790); assay: Biacore 2000 comparative kinetic analysis, CAIX; assay type: binding; conditions: for Kd: comparative, not absolute; for KDInv/KDOrig: original set to 1.0; for KD(2w)/KD(0): KD after stability test relative to KD before
# T1 construct: purchased R&D Systems 2188-CA
# Method: (§1) A set of polypeptides showing improved stability properties in Example 12 were further assessed in terms of preserved binding capacities to their targets after introduction of alterations in the scaffold, as well as after having been subjected to the stability test, i.e. incubated at 37° C. for 2 weeks. Comparative kinetic constants (kon and koff) and affinities (KD) were determined using a Biacore 2000 instrument. The target proteins human HER2-Fc (R&D Systems, cat. no. 1129-ER-050), human PDGF-Rβ (R&D Systems, cat. no. 385-PR-100/CF), human FcRn (Biorbyt, cat. no. orb 84388) and human CAIX (R&D Systems, cat. no. 2188-CA), respectively, were immobilized on the carboxylated dextran layer surface of CM5 chips (GE Healthcare). The immobilization was performed using amine coupling chemistry according to the manufacturer's protocol and using HBS-EP as running buffer. One flow cell surface on the chip was activated and deactivated for use as blank during analyte injections. The immobilization level of target protein on the respective surface was approximately 850 RU for HER2, 2200 RU for PDGF-Rβ, 750 for FcRn and 580 RU for CAIX.
# (§2) HBS-EP (HER2, PDGF-Rβ, CAIX) or a pH 6.0 Na2HPO4/citric acid buffer (126 mM Na2HPO4, 37 mM citric acid) (FcRn) was used as running buffer and the flow rate was 30 μl/min in the binding experiments performed at 25° C. as further described below.
# The Z variants Z09782 (SEQ ID NO:36), Z17351 (SEQ ID NO:37), Z17355 (SEQ ID NO:39), and Z17359 (SEQ ID NO:41) targeting CAIX were diluted in running buffer to final concentrations of 30, 90 and 270 nM and injected for 5 minutes, followed by 15 minutes of dissociation in running buffer. Regeneration by three pulses of 10 mM glycin-HCl pH 3.0 followed by 5 min equilibration in running buffer was applied after each analyte injection.
# (§3) Kinetic constants were calculated from the sensorgrams using the Langmuir 1:1 model (HER2, FcRn, CAIX) or the 1:1 binding with mass transfer model (PDGF-Rβ) of the BiaEvaluation software 4.1 (GE Healthcare). Curves of the blank surface were subtracted from the curves of the ligand surfaces and the data from the buffer cycles were subtracted from the data of the test-sample cycles to correct for any drift in signal.
# [3] = molecular target: T2, human FcRn (Homo sapiens, UniProt P55899); assay: Biacore 2000 comparative kinetic analysis, FcRn; assay type: binding; conditions: for KDInv/KDOrig: original set to 1.0; for ka / kd / Kd: pH 6.0; for Kd: comparative, not absolute
# T2 construct: purchased Biorbyt orb 84388
# Method: Comparative kinetic constants (kon and koff) and affinities (KD) were determined using a Biacore 2000 instrument. The target proteins human HER2-Fc (R&D Systems, cat. no. 1129-ER-050), human PDGF-Rβ (R&D Systems, cat. no. 385-PR-100/CF), human FcRn (Biorbyt, cat. no. orb 84388) and human CAIX (R&D Systems, cat. no. 2188-CA), respectively, were immobilized on the carboxylated dextran layer surface of CM5 chips (GE Healthcare). The immobilization was performed using amine coupling chemistry according to the manufacturer's protocol and using HBS-EP as running buffer. One flow cell surface on the chip was activated and deactivated for use as blank during analyte injections.
# as §2
# Regeneration by three pulses of HBS-EP followed by 10 min equilibration in running buffer was applied after each analyte injection.
# as §3
# [4] = molecular target: T3, human PDGF-Rβ (Homo sapiens, UniProt P09619); assay: Biacore 2000 comparative kinetic analysis, PDGF-Rβ; assay type: binding; conditions: for Kd: comparative, not absolute; for KDInv/KDOrig: original set to 1.0; for KD(2w)/KD(0): KD after stability test relative to KD before
# T3 construct: purchased R&D Systems 385-PR-100/CF
# Method: as §1, §2
# The Z variants Z15805 (SEQ ID NO:30), Z17343 (SEQ ID NO:31), and Z17344 (SEQ ID NO:32) targeting PDGF-R13 were diluted in running buffer to final concentrations of 6.67, 20, 60 and 180 nM and injected for 5 minutes, followed by 20 minutes of dissociation in running buffer. Regeneration by three pulses of 10 mM NaOH followed by 5 min equilibration in running buffer was applied after each analyte injection.
# as §3
substance,measurement,setting,value
"Z09782: original Z variant polypeptide targeting CAIX, His6-tagged (AEAKYAKENLFAGWEISDLPNLTDYQRNAFIYKLWDDPSQSSELLSEAKKLNDSQAPK; His6 tag; Engineered CAIX binding Z variant) [reference compound]",Tm (° C.),[1],43 °C
same,ka,[2]; (0) prior to stability test,208000 M/s
same,kd,[2]; (0) prior to stability test,0.00146 s⁻¹
same,Kd,[2]; (0) prior to stability test,7 nM
same,KDInv/KDOrig,[2]; (0) prior to stability test,1.0
same,ka,[2]; (2w) after 2 weeks at 37° C.,140000 M/s
same,kd,[2]; (2w) after 2 weeks at 37° C.,0.00138 s⁻¹
same,Kd,[2]; (2w) after 2 weeks at 37° C.,9.9 nM
same,KDInv/KDOrig,[2]; (2w) after 2 weeks at 37° C.,1.0
same,KD(2w)/KD(0),[2],1.41
"Z10103: original Z variant polypeptide targeting FcRn, His6-tagged (AEAKYAKEQDAAAHEIRWLPNLTFDQRVAFIHKLADDPSQSSELLSEAKKLNDSQAPK; His6 tag; Engineered FcRn binding Z variant) [reference compound]",Tm (° C.),[1],48 °C
same,KDInv/KDOrig,[3]; (0) prior to stability test,1.0
same,ka,[3]; (0) prior to stability test,1.6e+06 M/s
same,kd,[3]; (0) prior to stability test,0.00456 s⁻¹
same,Kd,[3]; (0) prior to stability test,2.9 nM
same,KDInv/KDOrig,[3]; (2w) after 2 weeks at 37° C.,1.0
same,ka,[3]; (2w) after 2 weeks at 37° C.,3.15e+06 M/s
same,kd,[3]; (2w) after 2 weeks at 37° C.,0.00575 s⁻¹
same,Kd,[3]; (2w) after 2 weeks at 37° C.,1.8 nM
same,KD(2w)/KD(0),[3]; KD after stability test relative to KD before,0.64
"Z15805: original Z variant polypeptide targeting PDGF-Rβ, His6-tagged (AEAKYAKELIEAAAEIDALPNLTRRQWNAFIKKLVDDPSQSSELLSEAKKLNDSQAPK; His6 tag; Engineered PDGFRbeta binding Z variant) [reference compound]",ka,[4]; (0) prior to stability test,7.15e+06 M/s
same,kd,[4]; (0) prior to stability test,0.00139 s⁻¹
same,Kd,[4]; (0) prior to stability test,0.19 nM
same,KDInv/KDOrig,[4]; (0) prior to stability test,1.0
same,ka,[4]; (2w) after 2 weeks at 37° C.,5.81e+06 M/s
same,kd,[4]; (2w) after 2 weeks at 37° C.,0.00166 s⁻¹
same,Kd,[4]; (2w) after 2 weeks at 37° C.,0.29 nM
same,KDInv/KDOrig,[4]; (2w) after 2 weeks at 37° C.,1.0
same,KD(2w)/KD(0),[4],1.47
same,Tm (° C.),[1],48 °C
"Z17341: inventive HER2 binding Z variant; N52S, D53E (AEAKYAKEMRNAYWEIALLPNLTNQQKRAFIRKLYDDPSQSSELLSEAKKLSESQAPK; Engineered HER2 binding Z variant)",Tm (° C.),[1],66 °C
"Z17343: inventive PDGF-Rβ binding Z variant; N52S, D53E (AEAKYAKELIEAAAEIDALPNLTRRQWNAFIKKLVDDPSQSSELLSEAKKLSESQAPK; Engineered PDGFRbeta binding Z variant)",ka,[4]; (0) prior to stability test,4.8e+06 M/s
same,kd,[4]; (0) prior to stability test,0.00177 s⁻¹
same,Kd,[4]; (0) prior to stability test,0.37 nM
same,KDInv/KDOrig,[4]; (0) prior to stability test,1.90
same,ka,[4]; (2w) after 2 weeks at 37° C.,6.45e+06 M/s
same,kd,[4]; (2w) after 2 weeks at 37° C.,0.00171 s⁻¹
same,Kd,[4]; (2w) after 2 weeks at 37° C.,0.264 nM
same,KDInv/KDOrig,[4]; (2w) after 2 weeks at 37° C.,0.93
same,KD(2w)/KD(0),[4],0.72
same,effect of scaffold substitutions on the affinity,[4]; compared with original Z variant,slightly improved
same,Tm (° C.),[1],46 °C
"Z17347: inventive FcRn binding Z variant; N52S, D53E (AEAKYAKEQDAAAHEIRWLPNLTFDQRVAFIHKLADDPSQSSELLSEAKKLSESQAPK; Engineered FcRn binding Z variant)",Tm (° C.),[1],50 °C
"Z17351: inventive CAIX binding Z variant; N52S, D53E (AEAKYAKENLFAGWEISDLPNLTDYQRNAFIYKLWDDPSQSSELLSEAKKLSESQAPK; Engineered CAIX binding Z variant)",Tm (° C.),[1],40 °C
same,ka,[2]; (0) prior to stability test,151000 M/s
same,kd,[2]; (0) prior to stability test,0.00263 s⁻¹
same,Kd,[2]; (0) prior to stability test,18 nM
same,KDInv/KDOrig,[2]; (0) prior to stability test,2.49
same,ka,[2]; (2w) after 2 weeks at 37° C.,191000 M/s
same,kd,[2]; (2w) after 2 weeks at 37° C.,0.00286 s⁻¹
same,Kd,[2]; (2w) after 2 weeks at 37° C.,15 nM
same,KDInv/KDOrig,[2]; (2w) after 2 weeks at 37° C.,1.52
same,KD(2w)/KD(0),[2],0.86
"Z17352: inventive CAIX binding Z variant; D36R, D37Q, S39E, N52S, D53E (AEAKYAKENLFAGWEISDLPNLTDYQRNAFIYKLWRQPEQSSELLSEAKKLSESQAPK; Engineered CAIX binding Z variant)",Tm (° C.),[1],45 °C
Z17355: inventive CAIX binding Z variant; D53E (AEAKYAKENLFAGWEISDLPNLTDYQRNAFIYKLWDDPSQSSELLSEAKKLNESQAPK; Engineered CAIX binding Z variant),Tm (° C.),[1],43 °C
"Z17357: inventive CAIX binding Z variant; D36R, D37Q, S39E, D53E (AEAKYAKENLFAGWEISDLPNLTDYQRNAFIYKLWRQPEQSSELLSEAKKLNESQAPK; Engineered CAIX binding Z variant)",Tm (° C.),[1],47 °C
Z17359: inventive CAIX binding Z variant; N52S (AEAKYAKENLFAGWEISDLPNLTDYQRNAFIYKLWDDPSQSSELLSEAKKLSDSQAPK; Engineered CAIX binding Z variant),Tm (° C.),[1],41 °C
same,ka,[2]; (0) prior to stability test,168000 M/s
same,kd,[2]; (0) prior to stability test,0.00215 s⁻¹
same,Kd,[2]; (0) prior to stability test,13 nM
same,KDInv/KDOrig,[2]; (0) prior to stability test,1.82
same,ka,[2]; (2w) after 2 weeks at 37° C.,178000 M/s
same,kd,[2]; (2w) after 2 weeks at 37° C.,0.00233 s⁻¹
same,Kd,[2]; (2w) after 2 weeks at 37° C.,13 nM
same,KDInv/KDOrig,[2]; (2w) after 2 weeks at 37° C.,1.32
same,KD(2w)/KD(0),[2],1.02
"Z17360: inventive CAIX binding Z variant; D36R, D37Q, S39E, N52S (AEAKYAKENLFAGWEISDLPNLTDYQRNAFIYKLWRQPEQSSELLSEAKKLSDSQAPK; Engineered CAIX binding Z variant)",Tm (° C.),[1],46 °C
